# In all, about 420,000 compounds went through this assay and about 50,000 (12%) were called active. The inconclusive results got no clear call from the source; some entries with a clear call stand among them for comparison. Calls come from the whole dose curve; as a rule, active = well fitted inhibition curve with a large enough effect; inconclusive = small, poorly fitted or top-dose-only effect; inactive = flat fitted curve, though single readings scatter. Potencies of inconclusive entries are left out as doubtful fits.
# Assay: qHTS for Inhibitors of human tyrosyl-DNA phosphodiesterase 1 (TDP1): qHTS in cells in presence of CPT; note: nearly all actives have a fitted effect of over 55% in size
# Conditions: chicken DT40 Tdp1-/-;hTDP1 cells + 20 nM CPT, ATP luminescence, 48 h; series mostly up to 46.2 µM
# Outline: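 Chicken DT40 Tdp1-/- cells stably complemented with human TDP1 were seeded at 400 cells/well in medium containing 20 nM camptothecin, exposed to pin-transferred compounds, and grown at 37 °C for at least 48 hr. Viability was read as ATP luminescence.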
# Potency is the fitted concentration of half-maximal effect; tags give direction and shape of the fitted curve.
row,SMILES,Potency
1,COc1cccc(CNC(=O)c2ccc(S(=O)(=O)N3CCCCC3)cc2)c1,inactive
2,Cc1c(NC(=O)c2cccc(NC(=O)C(C)Oc3ccccc3)c2)c(=O)n(-c2ccccc2)n1C (centres undefined),"inconclusive [inhibitor, single point]"
3,CN(CC(=O)NCc1ccco1)C(=O)C1CC(=O)N(c2ccc3c(c2)OCCO3)C1 (centres undefined),inactive
4,Fc1ccccc1N1CCN(c2nc(-c3cccs3)nc3ccccc23)CC1,"inconclusive [inhibitor, single point]"
5,O=C(CNCC1CCCCC1)Nc1ccc(OC(F)(F)F)cc1,inactive
6,COc1ccc(CNCc2cc(OC)ccc2OC)cc1,"inconclusive [inhibitor, single point]"
7,CC(=O)Nc1cccc(NC(=O)c2c(-c3ccccc3Cl)noc2C)c1,"inconclusive [inhibitor, single point]"
8,COc1ccccc1N(CC(=O)Nc1ccccc1C(F)(F)F)S(=O)(=O)c1cccs1,"inconclusive [inhibitor, single point]"
9,CC(C)N(Cc1ccccc1)S(=O)(=O)c1ccc(-c2cc(C(F)(F)F)on2)s1,"inconclusive [inhibitor, single point]"
10,COCCCNC(=O)CCc1c(C)nc2nc(-c3cc(OC)cc(OC)c3)nn2c1C,inactive
11,CCn1cc(C(=O)O)c(=O)c2cc(F)c(N/N=C/c3ccccc3)cc21,"inconclusive [inhibitor, single point]"
12,CCOC(=O)Cc1csc(NC(NC(=O)OCC)(C(=O)OCC)C(F)(F)F)n1 (centres undefined),inactive
13,COc1ccc(C(=O)CSc2nnc(NC(=O)C3CC(=O)N(c4ccccc4C)C3)s2)cc1 (centres undefined),"inconclusive [inhibitor, single point]"
14,COc1ccc(C(=O)Cc2ccc(OC)c(OC)c2)c(OC)c1,"inconclusive [inhibitor, single point]"
15,Cc1scc(C(=O)N/N=C/c2ccc(Cl)s2)c1C,"inconclusive [inhibitor, partial curve, poor fit]"
16,N#CCC(=N)N1CCN(c2ccc(F)cc2)CC1,inactive
17,CNc1nc(-c2ccc3c(c2)CCN3C(=O)c2ccc(F)cc2)cs1,"inconclusive [inhibitor, single point]"
18,Cc1occc1C(=O)N/N=C/C(Br)=C/c1ccccc1,active: 9.2 µM
19,CC(=O)Cc1nsc(NC(=O)c2ccccc2)n1,inactive
20,C/C(=N\Nc1ccc(S(=O)(=O)N2CCCCC2)cn1)c1cccc(Br)c1,"inconclusive [inhibitor, single point]"
21,COC(=O)[C@H]1C[C@@]2(O)CN(S(=O)(=O)c3ccc(C)cc3)C[C@@]2(OC(=O)Nc2cccs2)C[C@H]1C(=O)OC,"inconclusive [inhibitor, single point]"
22,COc1ccc(N2CCN(C(=O)c3ccc4[nH]c(C)c(C)c4c3)CC2)cc1,"inconclusive [inhibitor, single point]"
23,O=C(O)c1cc(NN=C2CCN(Cc3ccccc3)CC2)ccc1Cl,inactive

row,SMILES,Potency
1,O=C(CCl)Nc1ccc(S(=O)(=O)NC2=NCCCCC2)cc1,active: 18.4 µM
2,Cc1ccc(-c2csc3nc4c5ccccc5c(NCCCN(C)C)nn4c(=O)c23)cc1,"inconclusive [inhibitor, single point]"
3,COc1ccc(-n2c(C)c(C(C)=O)c3cc(OC(=O)COc4ccccc4)ccc32)cc1,active: 6.51 µM
4,CN(C)c1ncnc2ccc(-c3cccc(C#N)c3)cc12,active: 25.9 µM
5,O=C(O)c1c(C(=O)O)c(-c2ccc(Cl)c(Cl)c2)n2c1CSC2,inactive
6,CSCCC(NS(=O)(=O)c1ccccc1F)C(=O)NCc1ccncc1 (centres undefined),inactive
7,O=C(Nc1ccc2c(c1)OCO2)c1cc(C2CCCCN2C(=O)c2ccc3c(c2)CCO3)on1 (centres undefined),active: 25.9 µM
8,O=C(O)CCCn1cc(NC(=O)COc2cccc(Cl)c2)cn1,"inconclusive [inhibitor, full curve, poor fit]"
9,O=C1/C(=C/c2ccc(O)c([N+](=O)[O-])c2)SC(=S)N1Cc1ccccc1,"inconclusive [inhibitor, single point]"
10,Cc1cccc(-n2c(SCC(=O)NCC3CCCO3)nc3ccccc3c2=O)c1C (centres undefined),active: 14.6 µM
11,Cc1ccc(OCCNC(=O)c2ccc(C)cc2)cc1,inactive
12,CC(C)CCNc1nc2c(c(=O)n(Cc3cccc(F)c3)c(=O)n2C)n1C,active: 25.9 µM
13,CCOc1ccc(CCNC(=O)Cc2ccc(NC(=O)C3=C(C)OCCS3)cc2)cc1,"inconclusive [inhibitor, single point]"
14,CN(C)S(=O)(=O)N1CCC(CCCC2CCN(S(=O)(=O)N(C)C)CC2)CC1,"inconclusive [inhibitor, single point]"
15,CCCCC(=O)Nc1ccc(N2CCN(C(=O)c3ccco3)CC2)cc1,"inconclusive [inhibitor, single point]"
16,Cc1cc(C)cc(OCC(=O)N(Cc2cccs2)c2ccc(Cl)cc2)c1,"inconclusive [inhibitor, single point]"
17,O=C(NCc1ccco1)c1csc(Nc2ccccc2Cl)n1,"inconclusive [inhibitor, single point]"
18,CCOC(=O)c1sc(NC(=O)CSc2nc(C)cc(C(F)(F)F)n2)c(C#N)c1C,"inconclusive [inhibitor, single point]"
19,Cc1cc(-c2ccc(C)c(S(=O)(=O)NCc3cccc(Br)c3)c2)on1,"inconclusive [inhibitor, single point]"
20,COc1ccc(S(=O)(=O)N2CCC(C(=O)NCCC3=CCCCC3)CC2)cc1OC,"inconclusive [inhibitor, partial curve]"
21,Cc1ccsc1C(=O)N1CCC(CO)(Cc2ccccc2)CC1,inactive
22,Cc1ccc2onc(CC(=O)N3CCN(c4cc(Cl)ccc4C)CC3)c2c1,"inconclusive [inhibitor, single point]"
23,Fc1ccc(-c2nn(-c3ccccc3Cl)c3c2cnc2ccccc23)cc1,"inconclusive [inhibitor, single point]"

row,SMILES,Potency
1,COc1ccc(OC)c(S(=O)(=O)NCc2ccc(N3CCN(C)CC3)cc2)c1,inactive
2,CC(C)(CNC(=O)Cc1ccc(Cl)cc1Cl)N1CCOCC1,"inconclusive [inhibitor, single point]"
3,CS(=O)(=O)N1c2ccccc2[C@]2(Br)C[C@H]3C(=O)N[C@@H](Cc4ccccc4)C(=O)N3[C@H]12,"inconclusive [inhibitor, single point]"
4,CS(=O)(=O)N1CCC2(CCN(c3cccc(-c4ccccc4)c3)CC2)CC1,"inconclusive [inhibitor, single point]"
5,CCOC(=O)c1c(N)sc2c1CCC1C(=O)N(C3CCCCC3)C(=O)C21 (centres undefined),"inconclusive [inhibitor, single point]"
6,O=C1/C(=C/C=C/c2ccccc2)Oc2c1ccc(O)c2CN1CCN(CCO)CC1,"inconclusive [inhibitor, single point]"
7,COC(=O)[C@H]1C[C@H](OC(=O)NCc2ccccc2F)[C@@]2(O)CN(S(=O)(=O)c3ccc(C)cc3)CC2[C@H]1C(=O)OC (some centres undefined),"inconclusive [inhibitor, single point]"
8,Cc1ccc(N2CC(O)CSC2=Nc2ccccc2)cc1 (centres undefined),"inconclusive [inhibitor, single point]"
9,Cc1ccc([C@@H]2C[C@H]3[C@@H](CN2S(=O)(=O)c2ccc(Cl)cc2)C(=O)C[C@@H](c2ccccc2F)N3S(=O)(=O)c2ccc(C)cc2)cc1,"inconclusive [inhibitor, partial curve]"
10,Cn1c(=O)c([N+](=O)[O-])c(-n2cnc3ccccc32)c2ccccc21,"inconclusive [inhibitor, single point]"
11,Cc1ccc2[nH]c(=O)c(CN(CCO)C(=O)N(C)C)cc2c1,inactive
12,COc1cc(NC(=O)C2=CC(c3cccs3)=NS(=O)(=O)N2C)cc(OC)c1OC,"inconclusive [inhibitor, single point]"
13,COc1ccc(CN2CCC2(C)C(=O)Nc2cccc(NS(C)(=O)=O)c2)c2ccccc12 (centres undefined),"inconclusive [inhibitor, single point]"
14,COc1ccccc1NC(=O)COC(=O)CN1C(=O)C(=O)c2ccccc21,active: 8.2 µM
15,CCc1c(O)nc(SCc2ccccc2)n(C(C)CC)c1=O (centres undefined),"inconclusive [inhibitor, single point]"
16,COc1ccc(-n2nc(C(=O)N3CCN(c4cccc(C)c4C)CC3)c3c4ccccc4n(C)c3c2=O)cc1Cl,inactive
17,O=C(Cc1ccc(Cl)cc1)Nc1nc2ccccc2[nH]1,active: 5.17 µM
18,COc1ccc(CNC(=O)c2nc(SCc3ccccc3F)ncc2Cl)cc1,"inconclusive [inhibitor, partial curve]"
19,CC(C)NC(=O)NC(=O)COC(=O)c1cc[n+]([O-])cc1,inactive
20,CCC(=O)N1CCCc2cc(S(=O)(=O)N3CCC(C(=O)NC4CCCCC4)CC3)ccc21,inactive
21,COc1ccccc1Cn1c(CNS(=O)(=O)c2ccc(C(C)C)cc2)nc2cccnc21,"inconclusive [inhibitor, single point]"
22,O=C(NC1CCCc2ccccc21)c1cc(Cl)ccn1 (centres undefined),inactive
23,O=C(c1ccc2c(c1)N(Cc1ccc(F)cc1)C(=O)c1ccccc1S2(=O)=O)N1CCCC1,active: 23.1 µM
